Several values for one entry are separate records, joined by “and”; a condition that tells them apart may be missing. Equal entries are not always repeated. Part of at least one peptide drawing is inferred or uncertain, most often the ends. For at least one compound, name, drawing or mass did not settle the structure.
Tested on: Spike RBD coated magnetic beads / RAW 264.7 macrophages
Experiment: Antibody-dependent cellular phagocytosis (ADCP), RAW 264.7 macrophages and Spike RBD coated magnetic beads, flow cytometry
Type: cell-based
Details: 37° C., 2 hours, read-out: SARS-COV-2 ADCP EC50
Method: The ability of the compounds to mediate antibody-dependent cellular phagocytosis (ADCP) was assessed using RAW 264.7 macrophages and Spike RBD coated magnetic beads (https://www.acrobiosystems.com/P3194-SARS-CoV-2-Spike-RBD-coupled-Magnetic-Beads.html). Spike RBD coated magnetic beads (3 ul per well) were added to each well of a round bottom 96-well plates. RAW264.7 cells (50,000 cells per well) were added to the beads. Next, the compounds were administered to predetermined final concentrations. The cell-bead mixtures were incubated at 37° C. for 2 hours. The mixtures were then analyzed by flow cytometry.

Work on `CC[C@H](C)[C@H](NC(=O)[C@H](CC(C)C)NC(=O)[C@H](CC(=O)O)NC(=O)[C@H](CO)NC(=O)[C@@H](NC(=O)[C@H](CCCNC(=N)N)NC(=O)[C@H](CCSC)NC(=O)[C@H](CO)NC(=O)[C@H](C)NC(=O)[C@H](CCC(=O)O)NC(=O)[C@H](C)NC(=O)[C@H](Cc1c[nH]cn1)NC(=O)CNC(=O)[C@H](CC(C)C)NC(=O)[C@H](CCC(=O)O)NC(=O)[C@H](CC(=O)O)NC(=O)[C@H](CC(C)C)NC(=O)[C@H](CC(C)C)NC(=O)[C@H](CCCNC(=N)N)NC(=O)[C@H](CCSC)NC(=O)[C@@H](NC(=O)[C@H](CCC(=O)O)NC(=O)[C@H](Cc1ccc(O)cc1)NC(=O)[C@@H](NC(=O)[C@H](CCCCN)NC(=O)[C@H](CCC(N)=O)NC(=O)[C@H](CC(C)C)NC(=O)[C@@H](NC(=O)[C@H](Cc1c[nH]c2ccccc12)NC(=O)[C@H](CCC(=O)O)NC(=O)[C@H](CCCCN)NC(=O)[C@H](CC(=O)O)NC(=O)CCCNC(=O)[C@@H]1CSCC(=O)N[C@@H](C)C(=O)N[C@@H](CO)C(=O)N[C@@H](Cc2ccc(O)cc2)C(=O)N[C@@H](Cc2c[nH]cn2)C(=O)N[C@@H](CC(C)C)C(=O)NCC(=O)N[C@@H](CCC(=O)O)C(=O)N[C@@H](CC(C)C)C(=O)N[C@@H](C(C)C)C(=O)N[C@@H](Cc2c[nH]c3ccccc23)C(=O)N2Cc3ccccc3C[C@H]2C(=O)NC(C)(C)C(=O)N1)[C@@H](C)CC)[C@@H](C)CC)[C@@H](C)CC)C(C)C)C(=O)N[C@@H](Cc1ccc(O)cc1)C(=O)N[C@@H](CCC(=O)O)C(=O)N[C@@H](Cc1ccccc1)C(=O)N[C@@H](CCSC)C(=O)N[C@@H](CCCCN)C(=O)N[C@@H](CCCCN)C(=O)NCC(N)=O` [Compound 163] yielded an EC50 of 0.17 nM.

`CC[C@H](C)[C@H](NC(=O)[C@H](CC(C)C)NC(=O)[C@H](CC(=O)O)NC(=O)[C@H](CO)NC(=O)[C@@H](NC(=O)[C@H](CCCNC(=N)N)NC(=O)[C@H](CCSC)NC(=O)[C@H](CO)NC(=O)[C@H](C)NC(=O)[C@H](CCC(=O)O)NC(=O)[C@H](C)NC(=O)[C@H](Cc1c[nH]cn1)NC(=O)CNC(=O)[C@H](CC(C)C)NC(=O)[C@H](CCC(=O)O)NC(=O)[C@H](CC(=O)O)NC(=O)[C@H](CC(C)C)NC(=O)[C@H](CC(C)C)NC(=O)[C@H](CCCNC(=N)N)NC(=O)[C@H](CCSC)NC(=O)[C@@H](NC(=O)[C@H](CCC(=O)O)NC(=O)[C@H](Cc1ccc(O)cc1)NC(=O)[C@@H](NC(=O)[C@H](CCCCN)NC(=O)[C@H](CCC(N)=O)NC(=O)[C@H](CC(C)C)NC(=O)[C@@H](NC(=O)[C@H](Cc1c[nH]c2ccccc12)NC(=O)[C@H](CCC(=O)O)NC(=O)[C@H](CCCCN)NC(=O)[C@H](CC(=O)O)NC(=O)CCOCCOCCOCCOCCNC(=O)CCCC[C@@H]1SC[C@@H]2NC(=O)N[C@@H]21)[C@@H](C)CC)[C@@H](C)CC)[C@@H](C)CC)C(C)C)C(=O)N[C@@H](Cc1ccc(O)cc1)C(=O)N[C@@H](CCC(=O)O)C(=O)N[C@@H](Cc1ccccc1)C(=O)N[C@@H](CCSC)C(=O)N[C@@H](CCCCN)C(=O)N[C@@H](CCCCN)C(=O)NCC(=O)N[C@@H](CC(=O)O)C(=O)N[C@@H](CCC(=O)O)C(=O)N[C@@H](CCCNC(=N)N)C(=O)N[C@@H](CC(C)C)C(=O)N[C@@H](CC(C)C)C(=O)N[C@@H](CCC(=O)O)C(=O)N[C@@H](CCC(=O)O)C(=O)N[C@@H](C)C(=O)N[C@@H](CCC(=O)O)C(=O)N[C@@H](CCCNC(=N)N)C(=O)N[C@@H](CC(C)C)C(=O)N[C@@H](CC(C)C)C(=O)N[C@@H](CCC(=O)O)C(=O)N[C@@H](CCC(=O)O)C(=O)N[C@H](C(=O)N[C@@H](CCC(=O)O)C(=O)N[C@@H](CCCNC(=N)N)C(N)=O)C(C)C` [Compound 183] was tested, and the EC50 was 0.59 nM and 0.63 nM.

Work on `CC[C@H](C)[C@H](NC(=O)[C@H](CC(C)C)NC(=O)[C@H](CC(=O)O)NC(=O)[C@H](CO)NC(=O)[C@@H](NC(=O)[C@H](CCCNC(=N)N)NC(=O)[C@H](CCSC)NC(=O)[C@H](CO)NC(=O)[C@H](C)NC(=O)[C@H](CCC(=O)O)NC(=O)[C@H](C)NC(=O)[C@H](Cc1c[nH]cn1)NC(=O)CNC(=O)[C@H](CC(C)C)NC(=O)[C@H](CCC(=O)O)NC(=O)[C@H](CC(=O)O)NC(=O)[C@H](CC(C)C)NC(=O)[C@H](CC(C)C)NC(=O)[C@H](CCCNC(=N)N)NC(=O)[C@H](CCSC)NC(=O)[C@@H](NC(=O)[C@H](CCC(=O)O)NC(=O)[C@H](Cc1ccc(O)cc1)NC(=O)[C@@H](NC(=O)[C@H](CCCCN)NC(=O)[C@H](CCC(N)=O)NC(=O)[C@H](CC(C)C)NC(=O)[C@@H](NC(=O)[C@H](Cc1c[nH]c2ccccc12)NC(=O)[C@H](CCC(=O)O)NC(=O)[C@H](CCCCN)NC(=O)[C@H](CC(=O)O)NC(=O)CCOCCOCCOCCOCCNC(=O)CCCC[C@@H]1SC[C@@H]2NC(=O)N[C@@H]21)[C@@H](C)CC)[C@@H](C)CC)[C@@H](C)CC)C(C)C)C(=O)N[C@@H](Cc1ccc(O)cc1)C(=O)N[C@@H](CCC(=O)O)C(=O)N[C@@H](Cc1ccccc1)C(=O)N[C@@H](CCSC)C(=O)N[C@@H](CCCCN)C(=O)N[C@@H](CCCCN)C(=O)NCC(=O)N[C@@H](CC(=O)O)C(=O)N[C@@H](CCC(=O)O)C(=O)N[C@@H](CCCNC(=N)N)C(=O)N[C@@H](CC(C)C)C(=O)N[C@@H](CC(C)C)C(=O)N[C@@H](CCC(=O)O)C(=O)N[C@@H](CCC(=O)O)C(=O)N[C@@H](C)C(=O)N[C@@H](CCC(=O)O)C(=O)N[C@@H](CCCNC(=N)N)C(=O)N[C@@H](CC(C)C)C(=O)N[C@@H](CC(C)C)C(=O)N[C@@H](CCC(=O)O)C(=O)N[C@@H](CCC(=O)O)C(=O)N[C@H](C(=O)N[C@@H](CCC(=O)O)C(=O)N[C@@H](CCCNC(=N)N)C(=O)NCCOCCOCCOCCOCCOCCOCCOCCOCCC(=O)O)C(C)C` [Compound 208] yielded an EC50 of 1.1 nM.

With `CC[C@H](C)[C@H](NC(=O)[C@H](CC(C)C)NC(=O)[C@H](CC(=O)O)NC(=O)[C@H](CO)NC(=O)[C@@H](NC(=O)[C@H](CCCNC(=N)N)NC(=O)[C@H](CCSC)NC(=O)[C@H](CO)NC(=O)[C@H](C)NC(=O)[C@H](CCC(=O)O)NC(=O)[C@H](C)NC(=O)[C@H](Cc1c[nH]cn1)NC(=O)CNC(=O)[C@H](CC(C)C)NC(=O)[C@H](CCC(=O)O)NC(=O)[C@H](CC(=O)O)NC(=O)[C@H](CC(C)C)NC(=O)[C@H](CC(C)C)NC(=O)[C@H](CCCNC(=N)N)NC(=O)[C@H](CCSC)NC(=O)[C@@H](NC(=O)[C@H](CCC(=O)O)NC(=O)[C@H](Cc1ccc(O)cc1)NC(=O)[C@@H](NC(=O)[C@H](CCCCN)NC(=O)[C@H](CCC(N)=O)NC(=O)[C@H](CC(C)C)NC(=O)[C@@H](NC(=O)[C@H](Cc1c[nH]c2ccccc12)NC(=O)[C@H](CCC(=O)O)NC(=O)[C@H](CCCCN)NC(=O)[C@H](CC(=O)O)NC(=O)CCOCCOCCOCCOCCNC(=O)CCCC[C@@H]1SC[C@@H]2NC(=O)N[C@@H]21)[C@@H](C)CC)[C@@H](C)CC)[C@@H](C)CC)C(C)C)C(=O)N[C@@H](Cc1ccc(O)cc1)C(=O)N[C@@H](CCC(=O)O)C(=O)N[C@@H](Cc1ccccc1)C(=O)N[C@@H](CCSC)C(=O)N[C@@H](CCCCN)C(=O)N[C@@H](CCCCN)C(=O)NCC(=O)O` [Compound 209] the EC50 was 2.1 nM and 4 nM.

Source: patent US20260306644A1, “ANTIBODY RECRUITING MOLECULES FOR THE TREATMENT OF CORONAVIRUS DISEASE-19” (priority 2023, published 2026)
